# Some of the results follow.
# B1: Nictaba (Nicotiana tabacum), Q94EW1 (protein)
# chain: MQGQWIAARDLSITWVDNPQYWTWKTVDPNIEVAELRRVAWLDIYGKIETKNLIRKTSYAVYLVFKLTDNPRELERATASLRFVNEVAEGAGIEGTTVFISKKKKLPGELGRFPHLRSDGWLEIKLGEFFNNLGEDGEVEMRLMEINDKTWKSGIIVKGFDIRPN
# Tests used:
# Test in all cases: glycan array binding signal (z-score within array); higher = stronger binding
# Conditions in all cases: glycan notation: IUPAC condensed, linker removed
# [1] = molecular target: Fuc(a1-3)[Gal(b1-4)]GlcNAc(b1-6)GalNAc
# Method in brief: (§1)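 Glycan array data were curated from 3228 arrays in the Consortium for Functional Glycomics database and kept only where the protein sequence was available. Glycan names were converted to IUPAC-condensed notation, and columns mapping to the same glycan were averaged. The binding signal is a within-array Z-score, averaged across arrays of the same protein sequence at different concentrations or buffers and across linkers. Negative Z-scores can be read as non-binding.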
# [2] = molecular target: Fuc(a1-3)[Gal(b1-4)]GlcNAc(b1-6)[Gal(b1-3)GlcNAc(b1-3)]Gal(b1-4)Glc
# Method in brief: as §1
# [3] = molecular target: Fuc(a1-3)[Gal(b1-4)]GlcNAc(b1-6)[Neu5Ac(a2-3)Gal(b1-3)]GalNAc
# Method in brief: as §1
# [4] = molecular target: Fuc(a1-3)[Gal(b1-4)]GlcNAc6S
# Method in brief: as §1
# [5] = molecular target: Fuc(a1-3)[Gal3S(b1-4)]Glc
# Method in brief: as §1
# [6] = molecular target: Fuc(a1-3)[Gal3S(b1-4)]Glc6S
# Method in brief: as §1
# [7] = molecular target: Fuc(a1-3)[Gal3S(b1-4)]GlcNAc
# Method in brief: as §1
# [8] = molecular target: Fuc(a1-3)[Gal3S(b1-4)]GlcNAc6S
# Method in brief: as §1
# [9] = molecular target: Fuc(a1-3)[GalNAc(b1-4)]Gal(b1-4)GlcNAc
# Method in brief: as §1
# [10] = molecular target: Fuc(a1-3)[GalNAc(b1-4)]GlcNAc
# Method in brief: as §1
# [11] = molecular target: Fuc(a1-3)[GalNAc(b1-4)]GlcNAc6S
# Method in brief: as §1
# Fuc(a1-4)GlcNAc = molecular target: Fuc(a1-4)GlcNAc
# Method in brief: as §1
# Fuc(b1-3)GlcNAc = molecular target: Fuc(b1-3)GlcNAc
# Method in brief: as §1
# Gal(a1-2)Gal = molecular target: Gal(a1-2)Gal
# Method in brief: as §1
# Gal(a1-3)Gal = molecular target: Gal(a1-3)Gal
# Method in brief: as §1
# Gal(a1-3)Gal(b1-3)Glc = molecular target: Gal(a1-3)Gal(b1-3)Glc
# Method in brief: as §1
# Gal(a1-3)Gal(b1-3)GlcNAc = molecular target: Gal(a1-3)Gal(b1-3)GlcNAc
# Method in brief: as §1
# [12] = molecular target: Gal(a1-3)Gal(b1-3)GlcNAc(b1-2)Man
# Method in brief: as §1
# [13] = molecular target: Gal(a1-3)Gal(b1-3)GlcNAc(b1-2)Man(a1-3)[Gal(a1-3)Gal(b1-3)GlcNAc(b1-2)Man(a1-6)]Man(b1-4)GlcNAc(b1-4)GlcNAc
# Method in brief: as §1
# [14] = molecular target: Gal(a1-3)Gal(b1-3)GlcNAc(b1-3)GalNAc
# Method in brief: as §1
# [15] = molecular target: Gal(a1-3)Gal(b1-3)GlcNAc(b1-6)GalNAc
# Method in brief: as §1
# [16] = molecular target: Gal(a1-3)Gal(b1-3)[Fuc(a1-4)]GlcNAc(b1-2)Man(a1-3)[Gal(a1-3)Gal(b1-3)[Fuc(a1-4)]GlcNAc(b1-2)Man(a1-6)]Man(b1-4)GlcNAc(b1-4)GlcNAc
# Method in brief: as §1
# Gal(a1-3)Gal(b1-4)Glc = molecular target: Gal(a1-3)Gal(b1-4)Glc
# Method in brief: as §1
# Gal(a1-3)Gal(b1-4)GlcNAc = molecular target: Gal(a1-3)Gal(b1-4)GlcNAc
# Method in brief: as §1
# [17] = molecular target: Gal(a1-3)Gal(b1-4)GlcNAc(b1-2)Man
# Method in brief: as §1
# [18] = molecular target: Gal(a1-3)Gal(b1-4)GlcNAc(b1-2)Man(a1-3)[Gal(a1-3)Gal(b1-4)GlcNAc(b1-2)Man(a1-6)]Man(b1-4)GlcNAc(b1-4)GlcNAc
# Method in brief: as §1
# [19] = molecular target: Gal(a1-3)Gal(b1-4)GlcNAc(b1-3)GalNAc
# Method in brief: as §1
# [20] = molecular target: Gal(a1-3)Gal(b1-4)GlcNAc(b1-6)GalNAc
# Method in brief: as §1
# [21] = molecular target: Gal(a1-3)Gal(b1-4)[Fuc(a1-3)]GalNAc
# Method in brief: as §1
# [22] = molecular target: Gal(a1-3)Gal(b1-4)[Fuc(a1-3)]GlcNAc
# Method in brief: as §1
# [23] = molecular target: Gal(a1-3)Gal(b1-4)[Fuc(a1-3)]GlcNAc(b1-2)Man(a1-3)[Gal(a1-3)Gal(b1-4)[Fuc(a1-3)]GlcNAc(b1-2)Man(a1-6)]Man(b1-4)GlcNAc(b1-4)GlcNAc
# Method in brief: as §1
# Gal(a1-3)GalNAc = molecular target: Gal(a1-3)GalNAc
# Method in brief: as §1
# Gal(a1-3)GlcNAc = molecular target: Gal(a1-3)GlcNAc
# Method in brief: as §1
# [24] = molecular target: Gal(a1-3)[Gal(a1-4)]Gal(b1-4)GlcNAc
# Method in brief: as §1
# [25] = molecular target: Gal(a1-4)Gal(b1-3)GlcNAc(b1-2)Man(a1-3)[Gal(a1-4)Gal(b1-3)GlcNAc(b1-2)Man(a1-6)]Man(b1-4)GlcNAc(b1-4)GlcNAc
# Method in brief: as §1
# Gal(a1-4)Gal(b1-4)Gal = molecular target: Gal(a1-4)Gal(b1-4)Gal
# Method in brief: as §1
# Gal(a1-4)Gal(b1-4)GalNAc = molecular target: Gal(a1-4)Gal(b1-4)GalNAc
# Method in brief: as §1
# Gal(a1-4)Gal(b1-4)Glc = molecular target: Gal(a1-4)Gal(b1-4)Glc
# Method in brief: as §1
binder,measurement,setting,value
B1,glycan array binding signal (z-score),[1],-0.18
same,glycan array binding signal (z-score),[2],-0.286
same,glycan array binding signal (z-score),[3],-0.295
same,glycan array binding signal (z-score),[4],-0.274
same,glycan array binding signal (z-score),[5],-0.241
same,glycan array binding signal (z-score),[6],-0.134
same,glycan array binding signal (z-score),[7],-0.277
same,glycan array binding signal (z-score),[8],-0.214
same,glycan array binding signal (z-score),[9],-0.318
same,glycan array binding signal (z-score),[10],-0.302
same,glycan array binding signal (z-score),[11],-0.39
same,glycan array binding signal (z-score),Fuc(a1-4)GlcNAc,-0.318
same,glycan array binding signal (z-score),Fuc(b1-3)GlcNAc,-0.303
same,glycan array binding signal (z-score),Gal(a1-2)Gal,-0.289
same,glycan array binding signal (z-score),Gal(a1-3)Gal,-0.285
same,glycan array binding signal (z-score),Gal(a1-3)Gal(b1-3)Glc,-0.27
same,glycan array binding signal (z-score),Gal(a1-3)Gal(b1-3)GlcNAc,-0.268
same,glycan array binding signal (z-score),[12],-0.388
same,glycan array binding signal (z-score),[13],-0.148
same,glycan array binding signal (z-score),[14],-0.24
same,glycan array binding signal (z-score),[15],-0.388
same,glycan array binding signal (z-score),[16],-0.111
same,glycan array binding signal (z-score),Gal(a1-3)Gal(b1-4)Glc,-0.323
same,glycan array binding signal (z-score),Gal(a1-3)Gal(b1-4)GlcNAc,-0.166
same,glycan array binding signal (z-score),[17],-0.388
same,glycan array binding signal (z-score),[18],3.45
same,glycan array binding signal (z-score),[19],-0.272
same,glycan array binding signal (z-score),[20],-0.304
same,glycan array binding signal (z-score),[21],-0.329
same,glycan array binding signal (z-score),[22],-0.305
same,glycan array binding signal (z-score),[23],2.69
same,glycan array binding signal (z-score),Gal(a1-3)GalNAc,-0.277
same,glycan array binding signal (z-score),Gal(a1-3)GlcNAc,-0.371
same,glycan array binding signal (z-score),[24],-0.146
same,glycan array binding signal (z-score),[25],0.812
same,glycan array binding signal (z-score),Gal(a1-4)Gal(b1-4)Gal,-0.29
same,glycan array binding signal (z-score),Gal(a1-4)Gal(b1-4)GalNAc,-0.123
same,glycan array binding signal (z-score),Gal(a1-4)Gal(b1-4)Glc,-0.274

# — the supplement of paper PMC8728848
